test system: Mtb H37Ra proteome; format: cell-based

Question: O=C(Nc1ccc(Cl)c(C(F)(F)F)c1)NC1CCCCC1 [Compound 227] was tested. Which “EphF abundance in full proteome” value did it give?
Answer: The value was “slightly upregulated”.

Question: And the “IniA and IniC abundance in full proteome” value?
Answer: Its value is “concentration-dependently upregulated”.

Question: And the “MmpL3 abundance in full proteome” value?
Answer: The value was “slightly upregulated”.

Question: How did the “EphF abundance in full proteome” value turn out when O=C(Nc1ccc(Cl)c(C(F)(F)F)c1)NC1COC2(CCC2)OC1 [Compound 21] was run?
Answer: Its value is “slightly upregulated”.

Question: And the “IniA and IniC abundance in full proteome” value?
Answer: Its value is “concentration-dependently upregulated”.

Question: And the “MmpL3 abundance in full proteome” value?
Answer: Its value is “slightly upregulated”.

Question: With CC(C)=CCC/C(C)=C/CNCCNC1C2CC3CC(C2)CC1C3 (stereo not drawn) [SQ109, reference compound] as the molecule, how does the “EphF abundance in full proteome” value read?
Answer: The value was “not”.

Question: What about the “IniA and IniC abundance in full proteome” value of the same molecule?
Answer: Its value is “not induced”.

Question: What about the “MmpL3 abundance in full proteome” value of the same molecule?
Answer: Its value is “does not”.

From publication PMC12041881, “Tailored phenyl ureas eradicate drug-resistant Mycobacterium tuberculosis by targeting mycolic acid cell wall assembly” (Chemical Science, 2025)
